# Assay results from the supplement of paper PMC8728848.
# The other results are listed elsewhere or left out.
# B1: Langerin (Homo sapiens), Q9UJ71 (protein)
# chain: STLNAQIPELKSDLEKASALNTKIRALQGSLENMSKLLKRQNDILQVVSQGWKYFKGNFYYFSLIPKTWYSAEQFCVSRNSHLTSVTSESEQEFLYKTAGGLIYWIGLTKAGMEGDWSWVDDTPFNKVQSARFWIPGEPNDAGNNEHCGNIKAPSLQAWNDAPCDITFLFICKRPYVPSEP
# Tests used:
# Experiment in all cases: glycan array binding signal (z-score within array); higher = stronger binding
# Conditions in all cases: glycan notation: IUPAC condensed, linker removed; mutation: N288D, K313I
# Fuc(a1-2)Gal = target: Fuc(a1-2)Gal
# In short: (§1)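 Glycan array data came from 3228 arrays in the Consortium for Functional Glycomics database, and only arrays with an available protein sequence were kept. Glycan names were put into IUPAC-condensed notation, and columns mapping to the same glycan were averaged. The binding signal is a within-array Z-score, averaged across arrays of one protein sequence run at different concentrations or buffers and across linkers. A negative Z-score can be read as non-binding.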
# Fuc(a1-2)Gal(b1-3)GalNAc = target: Fuc(a1-2)Gal(b1-3)GalNAc
# In short: as §1
# [1] = target: Fuc(a1-2)Gal(b1-3)GalNAc(a1-3)[Fuc(a1-2)]Gal(b1-4)Glc
# In short: as §1
# [2] = target: Fuc(a1-2)Gal(b1-3)GalNAc(a1-3)[Fuc(a1-2)]Gal(b1-4)GlcNAc
# In short: as §1
# [3] = target: Fuc(a1-2)Gal(b1-3)GalNAc(b1-3)Gal
# In short: as §1
# [4] = target: Fuc(a1-2)Gal(b1-3)GalNAc(b1-3)Gal(a1-4)Gal(b1-4)Glc
# In short: as §1
# [5] = target: Fuc(a1-2)Gal(b1-3)GalNAc(b1-4)[Neu5Ac(a2-3)]Gal(b1-4)Glc
# In short: as §1
# Fuc(a1-2)Gal(b1-3)GlcNAc = target: Fuc(a1-2)Gal(b1-3)GlcNAc
# In short: as §1
# [6] = target: Fuc(a1-2)Gal(b1-3)GlcNAc(b1-2)Man(a1-3)[Fuc(a1-2)Gal(b1-3)GlcNAc(b1-2)Man(a1-6)]Man(b1-4)GlcNAc(b1-4)GlcNAc
# In short: as §1
# [7] = target: Fuc(a1-2)Gal(b1-3)GlcNAc(b1-2)Man(a1-3)[Fuc(a1-2)Gal(b1-3)GlcNAc(b1-2)Man(a1-6)]Man(b1-4)GlcNAc(b1-4)[Fuc(a1-6)]GlcNAc
# In short: as §1
# [8] = target: Fuc(a1-2)Gal(b1-3)GlcNAc(b1-3)Gal(b1-4)Glc
# In short: as §1
# [9] = target: Fuc(a1-2)Gal(b1-3)GlcNAc(b1-3)GalNAc
# In short: as §1
# [10] = target: Fuc(a1-2)Gal(b1-3)GlcNAc(b1-3)[Fuc(a1-2)Gal(b1-3)GlcNAc(b1-6)]GalNAc
# In short: as §1
# [11] = target: Fuc(a1-2)Gal(b1-3)GlcNAc(b1-3)[Gal(b1-4)GlcNAc(b1-6)]Gal(b1-4)Glc
# In short: as §1
# [12] = target: Fuc(a1-2)Gal(b1-3)GlcNAc(b1-3)[Neu5Ac(a2-6)Gal(b1-4)GlcNAc(b1-6)]Gal(b1-4)Glc
# In short: as §1
# [13] = target: Fuc(a1-2)Gal(b1-3)GlcNAc6S
# In short: as §1
# [14] = target: Fuc(a1-2)Gal(b1-3)[Fuc(a1-4)]GlcNAc
# In short: as §1
# [15] = target: Fuc(a1-2)Gal(b1-3)[Fuc(a1-4)]GlcNAc(b1-2)Man(a1-3)[Fuc(a1-2)Gal(b1-3)[Fuc(a1-4)]GlcNAc(b1-2)Man(a1-3)]Man(b1-4)GlcNAc(b1-4)GlcNAc
# In short: as §1
# [16] = target: Fuc(a1-2)Gal(b1-3)[Fuc(a1-4)]GlcNAc(b1-2)Man(a1-3)[Fuc(a1-2)Gal(b1-3)[Fuc(a1-4)]GlcNAc(b1-2)Man(a1-6)]Man(b1-4)GlcNAc(b1-4)[Fuc(a1-6)]GlcNAc(b1-4)[Fuc(a1-6)]GlcNAc
# In short: as §1
# [17] = target: Fuc(a1-2)Gal(b1-3)[Fuc(a1-4)]GlcNAc(b1-3)[Fuc(a1-3)[Gal(b1-4)]GlcNAc(b1-6)]Gal(b1-4)Glc
# In short: as §1
# [18] = target: Fuc(a1-2)Gal(b1-3)[Fuc(a1-4)]GlcNAc(b1-3)[Gal(b1-4)GlcNAc(b1-6)]Gal(b1-4)Glc
# In short: as §1
# [19] = target: Fuc(a1-2)Gal(b1-4)Fuc(a1-3)]GlcNAc(b1-2)Man(a1-3)[Fuc(a1-2)Gal(b1-4)[Fuc(a1-3)]GlcNAc(b1-2)Man(a1-6)]Man(b1-4)GlcNAc(b1-4)GlcNAc
# In short: as §1
# Fuc(a1-2)Gal(b1-4)Glc = target: Fuc(a1-2)Gal(b1-4)Glc
# In short: as §1
# Fuc(a1-2)Gal(b1-4)Glc6S = target: Fuc(a1-2)Gal(b1-4)Glc6S
# In short: as §1
# Fuc(a1-2)Gal(b1-4)GlcNAc = target: Fuc(a1-2)Gal(b1-4)GlcNAc
# In short: as §1
# [20] = target: Fuc(a1-2)Gal(b1-4)GlcNAc(b1-2)Man
# In short: as §1
# [21] = target: Fuc(a1-2)Gal(b1-4)GlcNAc(b1-2)Man(a1-3)[Fuc(a1-2)Gal(b1-4)GlcNAc(b1-2)Man(a1-6)]Man(b1-4)GlcNAc(b1-4)GlcNAc
# In short: as §1
# [22] = target: Fuc(a1-2)Gal(b1-4)GlcNAc(b1-2)Man(a1-3)[Fuc(a1-2)Gal(b1-4)GlcNAc(b1-2)Man(a1-6)]Man(b1-4)GlcNAc(b1-4)[Fuc(a1-6)]GlcNAc
# In short: as §1
# [23] = target: Fuc(a1-2)Gal(b1-4)GlcNAc(b1-2)[Fuc(a1-2)Gal(b1-4)GlcNAc(b1-4)]Man(a1-3)[Fuc(a1-2)Gal(b1-4)GlcNAc(b1-2)Man(a1-6)]Man(b1-4)GlcNAc(b1-4)GlcNAc
# In short: as §1
# [24] = target: Fuc(a1-2)Gal(b1-4)GlcNAc(b1-3)Gal(b1-4)GlcNAc
# In short: as §1
# [25] = target: Fuc(a1-2)Gal(b1-4)GlcNAc(b1-3)Gal(b1-4)GlcNAc(b1-2)Man(a1-3)[Fuc(a1-2)Gal(b1-4)GlcNAc(b1-3)Gal(b1-4)GlcNAc(b1-2)Man(a1-6)]Man(b1-4)GlcNAc(b1-4)GlcNAc
# In short: as §1
# [26] = target: Fuc(a1-2)Gal(b1-4)GlcNAc(b1-3)Gal(b1-4)GlcNAc(b1-3)Gal(b1-4)GlcNAc
# In short: as §1
# [27] = target: Fuc(a1-2)Gal(b1-4)GlcNAc(b1-3)GalNAc
# In short: as §1
# [28] = target: Fuc(a1-2)Gal(b1-4)GlcNAc(b1-3)[Fuc(a1-2)Gal(b1-4)GlcNAc(b1-6)]GalNAc
# In short: as §1
# [29] = target: Fuc(a1-2)Gal(b1-4)GlcNAc(b1-3)[Fuc(a1-3)[Gal(b1-4)]GlcNAc(b1-6)]Gal(b1-4)Glc
# In short: as §1
# [30] = target: Fuc(a1-2)Gal(b1-4)GlcNAc(b1-6)GalNAc
# In short: as §1
# [31] = target: Fuc(a1-2)Gal(b1-4)GlcNAc6S
# In short: as §1
# [32] = target: Fuc(a1-2)Gal(b1-4)[Fuc(a1-3)]GlcNAc
# In short: as §1
# [33] = target: Fuc(a1-2)Gal(b1-4)[Fuc(a1-3)]GlcNAc(b1-2)Man(a1-3)[Fuc(a1-2)Gal(b1-4)[Fuc(a1-3)]GlcNAc(b1-2)Man(a1-6)]Man(b1-4)GlcNAc(b1-4)[Fuc(a1-6)]GlcNAc
# In short: as §1
# [34] = target: Fuc(a1-2)Gal(b1-4)[Fuc(a1-3)]GlcNAc(b1-2)[Fuc(a1-2)Gal(b1-4)[Fuc(a1-3)]GlcNAc(b1-4)]Man(a1-3)[Fuc(a1-2)Gal(b1-4)[Fuc(a1-3)]GlcNAc(b1-2)Man(a1-6)]Man(b1-4)GlcNAc(b1-4)GlcNAc
# In short: as §1
# [35] = target: Fuc(a1-2)Gal(b1-4)[Fuc(a1-3)]GlcNAc(b1-3)Gal(b1-4)[Fuc(a1-3)]GlcNAc
# In short: as §1
# [36] = target: Fuc(a1-2)Gal(b1-4)[Fuc(a1-3)]GlcNAc(b1-3)Gal(b1-4)[Fuc(a1-3)]GlcNAc(b1-3)Gal(b1-4)[Fuc(a1-3)]GlcNAc
# In short: as §1
# [37] = target: Fuc(a1-2)Gal(b1-4)[Fuc(a1-3)]GlcNAc(b1-3)GalNAc
# In short: as §1
# [38] = target: Fuc(a1-2)Gal(b1-4)[Fuc(a1-3)]GlcNAc(b1-3)[Neu5Ac(a2-6)Gal(b1-4)GlcNAc(b1-6)]Gal(b1-4)Glc
# In short: as §1
# [39] = target: Fuc(a1-2)Gal3S(b1-4)GlcNAc
# In short: as §1
binder,measurement,setting,value
B1,glycan array binding signal (z-score),Fuc(a1-2)Gal,-0.159
same,glycan array binding signal (z-score),Fuc(a1-2)Gal(b1-3)GalNAc,-0.114
same,glycan array binding signal (z-score),[1],-0.057
same,glycan array binding signal (z-score),[2],-0.237
same,glycan array binding signal (z-score),[3],-0.06
same,glycan array binding signal (z-score),[4],-0.198
same,glycan array binding signal (z-score),[5],-0.086
same,glycan array binding signal (z-score),Fuc(a1-2)Gal(b1-3)GlcNAc,-0.189
same,glycan array binding signal (z-score),[6],-0.01
same,glycan array binding signal (z-score),[7],-0.086
same,glycan array binding signal (z-score),[8],-0.099
same,glycan array binding signal (z-score),[9],-0.193
same,glycan array binding signal (z-score),[10],0.215
same,glycan array binding signal (z-score),[11],-0.246
same,glycan array binding signal (z-score),[12],-0.054
same,glycan array binding signal (z-score),[13],-0.016
same,glycan array binding signal (z-score),[14],-0.13
same,glycan array binding signal (z-score),[15],0.058
same,glycan array binding signal (z-score),[16],0.376
same,glycan array binding signal (z-score),[17],-0.158
same,glycan array binding signal (z-score),[18],-0.101
same,glycan array binding signal (z-score),[19],-0.237
same,glycan array binding signal (z-score),Fuc(a1-2)Gal(b1-4)Glc,-0.288
same,glycan array binding signal (z-score),Fuc(a1-2)Gal(b1-4)Glc6S,-0.003
same,glycan array binding signal (z-score),Fuc(a1-2)Gal(b1-4)GlcNAc,-0.316
same,glycan array binding signal (z-score),[20],-0.163
same,glycan array binding signal (z-score),[21],-0.023
same,glycan array binding signal (z-score),[22],-0.117
same,glycan array binding signal (z-score),[23],0.132
same,glycan array binding signal (z-score),[24],-0.104
same,glycan array binding signal (z-score),[25],-0.021
same,glycan array binding signal (z-score),[26],-0.248
same,glycan array binding signal (z-score),[27],-0.095
same,glycan array binding signal (z-score),[28],-0.036
same,glycan array binding signal (z-score),[29],-0.34
same,glycan array binding signal (z-score),[30],-0.118
same,glycan array binding signal (z-score),[31],-0.187
same,glycan array binding signal (z-score),[32],-0.29
same,glycan array binding signal (z-score),[33],-0.029
same,glycan array binding signal (z-score),[34],-0.047
same,glycan array binding signal (z-score),[35],-0.085
same,glycan array binding signal (z-score),[36],-0.034
same,glycan array binding signal (z-score),[37],0.324
same,glycan array binding signal (z-score),[38],-0.271
same,glycan array binding signal (z-score),[39],-0.194
